In PubChem BioAssay AID198 (DTP/NCI, 2004):
Inconclusive results and toxic doses are left out. For part of its entries the source gives two or more results. They are shown here; other results are not. The source may hold further records. The values listed for one entry repeat one measurement in other runs, samples, wells, individuals or studies.

Test system: B16 melanoma ip, C57BL/6 mice, median survival T/C
Assay: NCI In Vivo Anticancer Drug Screen. Data for tumor model B16 Melanoma (intraperitoneal) in C57BL/6 mice
Settings: endpoint: median survival time, schedule: Q01DX009 (ip), vehicle: saline, higher = longer survival
Protocol: The antitumor activity of compounds was measured in mice bearing transplantable tumors. Survival or tumor size were measured and the results are expressed as the measurement made in the treated group (T) divided by the measurement made in the vehicle treated control group (C). The tumor model used in this assay is B16 Melanoma (intraperitoneal) in C57BL/6 mice

O=NN(CCCl)C(=O)NCCCl
T/C (dose: 3.75 mg/kg/injection): 121 % of control and 170 % of control

O=c1[nH]cc(N(CCCl)CCCl)c(=O)[nH]1
T/C (dose: 0.75 mg/kg/injection): 112 % of control and 178 % of control

NC(Cc1ccc(N(CCCl)CCCl)cc1)C(=O)O (stereo not drawn)
T/C (dose: 8.0 mg/kg/injection): 118 % of control, 250 % of control, 378 % of control
